Measured values taken from the supplement of paper PMC8728848.
This is one part of the list.

Experiments:
Test in all cases: glycan array binding signal (z-score within array); higher = stronger binding
Conditions in all cases: glycan notation: IUPAC condensed, linker removed
Gal3S(b1-4)Glc = biological target: Gal3S(b1-4)Glc
Procedure, shortened: (§1)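 Columns mapping to the same glycan were averaged after glycan names were converted to IUPAC-condensed notation. The data come from 3228 arrays in the Consortium for Functional Glycomics database, limited to those with an available protein sequence. Binding is reported as a within-array Z-score averaged across arrays of one protein sequence and across linkers.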

Gal3S(b1-4)Glc6S = biological target: Gal3S(b1-4)Glc6S
Procedure, shortened: as §1

Gal3S(b1-4)GlcNAc = biological target: Gal3S(b1-4)GlcNAc
Procedure, shortened: as §1

[1] = biological target: Gal3S(b1-4)[Fuc(a1-3)]Glc6S
Procedure, shortened: as §1

[2] = biological target: Gal3S(b1-4)[Fuc(a1-3)]GlcNAc
Procedure, shortened: as §1

[3] = biological target: Gal3S(b1-4)[Fuc(a1-3)]GlcNAc6S
Procedure, shortened: as §1

Gal3S4S(b1-4)GlcNAc = biological target: Gal3S4S(b1-4)GlcNAc
Procedure, shortened: as §1

Gal3S6S(b1-4)GlcNAc = biological target: Gal3S6S(b1-4)GlcNAc
Procedure, shortened: as §1

Gal3S6S(b1-4)GlcNAc6S = biological target: Gal3S6S(b1-4)GlcNAc6S
Procedure, shortened: as §1

Gal4S(b1-4)GlcNAc = biological target: Gal4S(b1-4)GlcNAc
Procedure, shortened: as §1

Gal4S6S(b1-4)GlcNAc = biological target: Gal4S6S(b1-4)GlcNAc
Procedure, shortened: as §1

Gal6P(b1-4)GlcNAc = biological target: Gal6P(b1-4)GlcNAc
Procedure, shortened: as §1

Gal6S(b1-3)GlcNAc = biological target: Gal6S(b1-3)GlcNAc
Procedure, shortened: as §1

Gal6S(b1-3)GlcNAc6S = biological target: Gal6S(b1-3)GlcNAc6S
Procedure, shortened: as §1

Gal6S(b1-4)Glc = biological target: Gal6S(b1-4)Glc
Procedure, shortened: as §1

Gal6S(b1-4)Glc6S = biological target: Gal6S(b1-4)Glc6S
Procedure, shortened: as §1

Gal6S(b1-4)GlcNAc = biological target: Gal6S(b1-4)GlcNAc
Procedure, shortened: as §1

Gal6S(b1-4)GlcNAc6S = biological target: Gal6S(b1-4)GlcNAc6S
Procedure, shortened: as §1

GalNAc(a1-3)Gal = biological target: GalNAc(a1-3)Gal
Procedure, shortened: as §1

GalNAc(a1-3)GalNAc = biological target: GalNAc(a1-3)GalNAc
Procedure, shortened: as §1

[4] = biological target: GalNAc(a1-3)GalNAc(b1-3)Gal(a1-4)Gal(b1-4)Glc
Procedure, shortened: as §1

[5] = biological target: GalNAc(a1-3)GalNAc(b1-3)Gal(a1-4)Gal(b1-4)GlcNAc
Procedure, shortened: as §1

GalNAc(b1-3)Gal = biological target: GalNAc(b1-3)Gal
Procedure, shortened: as §1

[6] = biological target: GalNAc(b1-3)Gal(a1-4)Gal(b1-4)GlcNAc
Procedure, shortened: as §1

[7] = biological target: GalNAc(b1-3)Gal(a1-4)Gal(b1-4)GlcNAc(b1-3)Gal(b1-4)Glc
Procedure, shortened: as §1

[8] = biological target: GalNAc(b1-3)Gal(a1-6)Gal(b1-4)Glc
Procedure, shortened: as §1

GalNAc(b1-3)GalNAc = biological target: GalNAc(b1-3)GalNAc
Procedure, shortened: as §1

GalNAc(b1-3)GlcNAc = biological target: GalNAc(b1-3)GlcNAc
Procedure, shortened: as §1

GalNAc(b1-4)Gal(b1-4)Glc = biological target: GalNAc(b1-4)Gal(b1-4)Glc
Procedure, shortened: as §1

GalNAc(b1-4)GlcNAc = biological target: GalNAc(b1-4)GlcNAc
Procedure, shortened: as §1

[9] = biological target: GalNAc(b1-4)GlcNAc(b1-2)Man
Procedure, shortened: as §1

[10] = biological target: GalNAc(b1-4)GlcNAc(b1-2)Man(a1-3)[GalNAc(b1-4)GlcNAc(b1-2)Man(a1-6)]Man(b1-4)GlcNAc(b1-4)GlcNAc
Procedure, shortened: as §1

[11] = biological target: GalNAc(b1-4)GlcNAc(b1-3)GalNAc(b1-4)GlcNAc
Procedure, shortened: as §1

GalNAc(b1-4)GlcNAc6S = biological target: GalNAc(b1-4)GlcNAc6S
Procedure, shortened: as §1

GalNAc(b1-6)GalNAc = biological target: GalNAc(b1-6)GalNAc
Procedure, shortened: as §1

GalNAc3S(b1-4)GlcNAc = biological target: GalNAc3S(b1-4)GlcNAc
Procedure, shortened: as §1

GalNAc3S(b1-4)GlcNAc3S = biological target: GalNAc3S(b1-4)GlcNAc3S
Procedure, shortened: as §1

B1: GS7807E-bfa-538-23-538 (Bacteroides fragilis) (protein)
chain: TDSFESFNTNEAGFDNDSKKQDFNYYGIPLGIIQQGIYFNYDWGSGKNWPFQTMQNLGADLFSGYVHDFNPFNEGKNNSTYYMMDGWNGSTWDNTYGYIMPEVQKSETINEKDNIGFFGITKILKVELMHRLSDLYGPIVYTQFGSKTGSTPDTQQEAYKAFFNDLDTGIAKIREYQKANPDIESFAKFDILMPQGKRTFSEWIRFANSLRLRLAVRIAMADSKLAVAEAQKALTDEEGLLEGNDEVVAVSTSSGYTNPFGEINKAWGEVFMNANMESLLVGYEDPRMEKYFDKATGSDATSLIDYKGTYKGIRQGTGFSHKNYNGHSKSTITQQTDAVLMTPAEVWFLRAEAALRGWSSESVKDCYEKGVKASFAQWGAAGAEAYLESDRKPSDYVDAFKAANNVKAVNTLTPKWDDAAGNEDKLGRIITQKWLAMFPEGGEAWAEQRRTGYPRLFPVLVNQSEGTVDTNLGPRRLNFFVGIKTTNPEQYTQLVNALGGIDNCGTRLWWDTGRNF
glycan array binding signal (z-score) (Gal3S(b1-4)Glc): -0.489
glycan array binding signal (z-score) (Gal3S(b1-4)Glc6S): -0.065
glycan array binding signal (z-score) (Gal3S(b1-4)GlcNAc): -0.438
glycan array binding signal (z-score) [1]: 1.61
glycan array binding signal (z-score) [2]: -0.638
glycan array binding signal (z-score) [3]: -0.155
glycan array binding signal (z-score) (Gal3S4S(b1-4)GlcNAc): -0.693
glycan array binding signal (z-score) (Gal3S6S(b1-4)GlcNAc): -0.604
glycan array binding signal (z-score) (Gal3S6S(b1-4)GlcNAc6S): 0.097
glycan array binding signal (z-score) (Gal4S(b1-4)GlcNAc): -0.708
glycan array binding signal (z-score) (Gal4S6S(b1-4)GlcNAc): -0.644
glycan array binding signal (z-score) (Gal6P(b1-4)GlcNAc): 0.37
glycan array binding signal (z-score) (Gal6S(b1-3)GlcNAc): 0.347
glycan array binding signal (z-score) (Gal6S(b1-3)GlcNAc6S): 0.077
glycan array binding signal (z-score) (Gal6S(b1-4)Glc): 0.571
glycan array binding signal (z-score) (Gal6S(b1-4)Glc6S): 1.84
glycan array binding signal (z-score) (Gal6S(b1-4)GlcNAc): 1.23
glycan array binding signal (z-score) (Gal6S(b1-4)GlcNAc6S): -0.472
glycan array binding signal (z-score) (GalNAc(a1-3)Gal): 0.863
glycan array binding signal (z-score) (GalNAc(a1-3)GalNAc): 0.104
glycan array binding signal (z-score) [4]: -0.533
glycan array binding signal (z-score) [5]: -0.658
glycan array binding signal (z-score) (GalNAc(b1-3)Gal): 1.46
glycan array binding signal (z-score) [6]: -0.246
glycan array binding signal (z-score) [7]: -0.54
glycan array binding signal (z-score) [8]: 0.894
glycan array binding signal (z-score) (GalNAc(b1-3)GalNAc): -0.682
glycan array binding signal (z-score) (GalNAc(b1-3)GlcNAc): 0.484
glycan array binding signal (z-score) (GalNAc(b1-4)Gal(b1-4)Glc): -0.452
glycan array binding signal (z-score) (GalNAc(b1-4)GlcNAc): 0.718
glycan array binding signal (z-score) [9]: -0.041
glycan array binding signal (z-score) [10]: 0.2
glycan array binding signal (z-score) [11]: 0.955
glycan array binding signal (z-score) (GalNAc(b1-4)GlcNAc6S): -0.418
glycan array binding signal (z-score) (GalNAc(b1-6)GalNAc): -0.682
glycan array binding signal (z-score) (GalNAc3S(b1-4)GlcNAc): -0.655
glycan array binding signal (z-score) (GalNAc3S(b1-4)GlcNAc3S): -0.697
